Out of some 16,000 compounds screened, about 120 (0.75%) were called active. Not shown: some 4% with an inconclusive outcome. Calls follow the shape of the dose curve; as a rule, active = well fitted inhibition curve with a large enough effect; inconclusive = small, poorly fitted or top-dose-only effect; inactive = no such curve, though single readings can be large or run the other way. This is one part of the list.

This assay deals with Rap guanine nucleotide exchange factor 3 (Homo sapiens) (UniProt O95398). Kind of assay: Validation qHTS for antagonist of cAMP-regulated guanine nucleotide exchange factor 3 (EPAC1).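 Also: plate controls were DMSO for no effect and ATA control for full effect; nearly all actives have a fitted effect of over 75% in size.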 The conditions noted are these: EPAC1 Rap1B-BODIPY-GDP exchange, fluorescence; activity change, negative = inhibition: at the top concentration. In a few lines: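 EPAC1 (100 nM) mixed with 250 nM RAP1B-BODIPY-GDP and 50 uM GDP; compounds in concentration series, 5 min at room temperature. Fluorescence (ex 480/em 540 nm) read every 5 min for 30 min; normalized to ATA control and DMSO.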
Chain of UniProt O95398 (O95398 whole entry, looked up): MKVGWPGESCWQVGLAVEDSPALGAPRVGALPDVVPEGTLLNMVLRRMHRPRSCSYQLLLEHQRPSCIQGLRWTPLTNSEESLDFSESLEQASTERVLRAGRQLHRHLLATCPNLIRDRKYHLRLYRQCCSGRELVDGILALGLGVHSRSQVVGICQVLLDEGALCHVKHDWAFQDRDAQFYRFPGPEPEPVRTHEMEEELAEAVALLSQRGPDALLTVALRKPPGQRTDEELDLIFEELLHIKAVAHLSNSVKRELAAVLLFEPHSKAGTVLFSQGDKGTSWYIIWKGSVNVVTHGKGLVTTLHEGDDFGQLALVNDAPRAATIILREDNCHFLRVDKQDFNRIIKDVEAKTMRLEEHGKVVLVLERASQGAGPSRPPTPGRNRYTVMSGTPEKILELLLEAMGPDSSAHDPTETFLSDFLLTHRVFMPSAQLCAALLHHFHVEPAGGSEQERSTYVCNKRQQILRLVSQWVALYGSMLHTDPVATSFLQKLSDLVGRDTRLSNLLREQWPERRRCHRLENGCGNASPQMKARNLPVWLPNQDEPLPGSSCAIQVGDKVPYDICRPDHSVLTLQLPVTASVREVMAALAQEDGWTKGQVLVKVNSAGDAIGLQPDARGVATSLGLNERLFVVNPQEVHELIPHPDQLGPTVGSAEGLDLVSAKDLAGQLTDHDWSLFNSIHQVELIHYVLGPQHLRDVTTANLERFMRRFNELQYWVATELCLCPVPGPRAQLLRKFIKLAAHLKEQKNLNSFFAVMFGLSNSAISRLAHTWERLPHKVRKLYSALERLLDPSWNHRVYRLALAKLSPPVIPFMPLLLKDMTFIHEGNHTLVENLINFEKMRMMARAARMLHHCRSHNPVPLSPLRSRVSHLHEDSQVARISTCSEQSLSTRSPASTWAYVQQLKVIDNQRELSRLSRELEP
A general note: Quantitative high-throughput screening tests each substance at several concentrations.
Turning to `CCc1cc(OC)c(C[C@H](C)N)cc1OC`, the “activity change, negative = inhibition” value was inactive: 13.7% [at 320 µM].
For `c1ccc(CCN2CCOCC2)cc1`, the “activity change, negative = inhibition” value is inactive: 17.7%.
Turning to `N[C@@]1(C(=O)O)CC[C@@H](C(=O)O)C1`, the “activity change, negative = inhibition” value was inactive: 14% [at 75.8 µM].
In the case of `CN(C)C1C(=O)C(C(N)=O)=C(O)[C@@]2(O)C(=O)C3=C(O)c4c(O)cccc4[C@@](C)(O)C3CC12` (stereo partly specified), the “activity change, negative = inhibition” value is inactive: 41.7%.
With `Cn1cc(C(=O)C(=O)N[C@H]2CN3CCC2CC3)c2ccccc21` the figure was inactive: 2.55%; with `C[C@@H]1OC(=O)[C@H]2C[C@H]3CCCC[C@@H]3[C@@H](/C=C/[C@H]3CCC[C@H](C)N3C)[C@@H]12`, inactive: 22.9%.
With `CNC(C)Cc1ccc2c(c1)OCO2` (stereo unspecified), the “activity change, negative = inhibition” value was inactive: 37.1% [at 320 µM].
Then `CCC1(c2ccc(N)cc2)CCC(=O)NC1=O` (stereo unspecified), with “inactive”.
In the case of `CC[C@@H](CO)NC(=O)[C@H]1C=C2c3cccc4c3c(cn4C)C[C@H]2N(C)C1`, the “activity change, negative = inhibition” value was inactive: -3.33%.
Then `C[C@H](Cc1ccc2c(c1)OC(C(=O)O)(C(=O)O)O2)NC[C@H](O)c1cccc(Cl)c1`, with inactive: -8.24% [at 75.8 µM]; and `CCCCCCCCCC(=O)O[C@H]1CC[C@H]2[C@@H]3CCC4=CC(=O)CC[C@]4(C)[C@H]3CC[C@]12C`, with inactive: 8.32%; and `C[N+]1(C)CCN(c2ccccc2)CC1`, with “inactive”.
Then `ClC1=C(Cl)[C@]2(Cl)[C@@H]3[C@@H]4C[C@@H]([C@H]5O[C@@H]45)[C@@H]3[C@@]1(Cl)C2(Cl)Cl`, with inactive: 28.7% [at 320 µM]; and `[H+].[H+].[Hg+2].[O-]B([O-])[O-].[c-]1ccccc1`, with inactive: 13%; and `CCOC(=O)[C@]12Cc3cc(C)ccc3[C@H]1N(Cc1ccccc1)C(=O)c1ccccc12`, with inactive: 3.03%.
For `C[C@@H](N)[C@@H](O)c1ccccc1`, the “activity change, negative = inhibition” value is inactive: 15.7% [at 75.8 µM].
Then `NC(=O)COc1c(F)cc(SCCNS(=O)(=O)c2ccccc2)cc1F`, with inactive: 19.6% [at 75.8 µM]; and `CCCN1CCC[C@H](c2cccc(O)c2)C1`, with “inactive”; and `COc1cc2nc(N(C)C)c(CNCCc3c[nH]c4ccccc34)cc2c(OC)c1OC`, with inactive: 14.4%.
Then `COc1cc(CCN)cc(OC)c1OC`, with inactive: 16.7% [at 320 µM]; and `COc1cccc2c1C13CC[N+]4(CC5CC5)CO[C@]1(CCC(=O)C3)C4C2`, with inactive: 14.9%; and `CCCN1CCO[C@@H]2c3cc(O)ccc3OC[C@@H]21`, with inactive: -19.1%.
`C[C@@H]1O[C@@H](O[C@H]2C[C@@H](O)[C@]3(CO)[C@H]4[C@H](O)C[C@]5(C)[C@@H](C6=CC(=O)OC6)CC[C@]5(O)[C@@H]4CC[C@]3(O)C2)[C@H](O)[C@H](O)[C@H]1O`: the activity change, negative = inhibition entry was “inactive”.
Then `Clc1cc(I)cc(Cl)c1NC1=NCCN1`, with inactive: 14.9% [at 75.8 µM]; and `CC1NCCOC1c1ccccc1` (stereo unspecified), with inactive: 21.8%; and `C[C@@H](N)Cc1cnc[nH]1`, with “inactive”.
Then `COc1ccc2c3c([nH]c2c1)C(C)=NCC3`, with “inactive”; and `CCC(C)(C)c1ccc(O)cc1`, with inactive: 5.01%; and `CCCN1CCC[C@@H]2Cc3[nH]ncc3C[C@H]21`, with “inactive”.
As for `COc1ccc(/C=C/C(=O)N2CC3C[C@@H](C2)Cn2c3cccc2=O)cc1OC`, the “activity change, negative = inhibition” value is inactive: -7.41%.
For `COc1ccc(CC2NC[C@H](O)[C@H]2OC(C)=O)cc1` (stereo partly specified), the “activity change, negative = inhibition” value is inactive: 6.05%.
With `Cc1nc2ccccc2c(=O)n1-c1ccccc1Cl` the figure was inactive: 27.4% [at 320 µM]; with `CC[C@H](C)[C@H](NC(=O)[C@H](CCCN=C(N)N)NC(=O)[C@H](CCCN=C(N)N)NC(=O)[C@H](CC(C)C)NC(=O)[C@H](Cc1ccccc1)NC(=O)CNC(=O)CNC(=O)[C@@H](N)Cc1ccc(O)cc1)C(=O)O`, inactive: 26.7% [at 15.3 µM]; with `CCCCC/C=C\C[C@@H](/C=C/C=C\C/C=C\CCCC(=O)O)OO`, inactive: 27.2% [at 1.57 µM].
Then `O=C1CS[C@@H](c2ccccc2Cl)c2cc(Cl)ccc2N1`, with inactive: -21.8%; and `[N-]=[N+]=CC(=O)OC[C@H](N)C(=O)O`, with inactive: 18.3%; and `CCN(CC)Cc1nccn1-c1ccc([N+](=O)[O-])cc1C(=O)c1ccccc1Cl`, with inactive: 4.4%.
Regarding `C[C@@H](N)Cn1ccc2cc(F)c(Cl)cc21`, the “activity change, negative = inhibition” value was inactive: 14.3%.
With `Cc1nc(N)sc1CCN` the entry was “inactive”; with `C#CCN1C(C)=C(C(=O)CCO)[C@@H](c2cccc(-n3oo3)c2)C(C(=O)OC)=C1C`, inactive: -19.2%; with `O=C(O)CCCCCCNC1c2ccccc2CCc2ccccc21`, inactive: -8.12%.
With `NCCCC[C@H](NC(=O)[C@H](Cc1ccccc1)NC(=O)[C@H](CCCN=C(N)N)NC(=O)[C@@H](N)Cc1ccc(O)cc1)C(N)=O` the figure was inactive: 38.3% [at 15.3 µM]; with `NCCCP(=O)(O)CC1CCCCC1`, “inactive”.
With `C=C(C)C1Cc2c(ccc3c(=O)c4c(oc23)COc2cc(OC)c(OC)cc2-4)O1` (stereo unspecified) the entry was “inactive”; with `COc1ccc(Cc2nccc3cc(OC)c(OC)cc23)cc1OC`, “inactive”.
As for `CCCOc1ccc2[nH]cc(C3=CCNCC3)c2n1`, the “activity change, negative = inhibition” value was inactive: -2.18%.
With `FC(F)OC(F)(F)C(F)Cl` (stereo unspecified) the figure was inactive: 4.83%; with `C[C@H](CN1CCOCC1)C(C(=O)N1CCCC1)(c1ccccc1)c1ccccc1`, inactive: -2.9% [at 320 µM].
With `CNCCc1c[nH]c2ccc(O)cc12` the entry was “inactive”; with `C[C@@]12CCC3C(CC[C@@H]4CC(O)CC[C@@]34C)C1CCC2O` (stereo partly specified), inactive: 18.9%; with `C[C@@H]1[C@H]2Cc3ccc(O)cc3[C@]1(C)CCN2C`, inactive: 3.01% [at 606 µM].

These data come from PubChem BioAssay AID1645882 (National Center for Advancing Translational Sciences (NCATS), 2021).
